Laboratory results taken from publication doi:10.1101/2023.09.21.558797.
Changes are numbered by the printed parent chain. Results are given in words; binding and its absence hold for the method and conditions named. Binding seen in cells or lysates may run through a third protein. Some binding calls cover weakened binding; strength is not graded here. For some assays here: Sequences can lack the tags named with a protein.

Chains of the proteins cited; added tags and fusions are not shown.
UniProt O35179: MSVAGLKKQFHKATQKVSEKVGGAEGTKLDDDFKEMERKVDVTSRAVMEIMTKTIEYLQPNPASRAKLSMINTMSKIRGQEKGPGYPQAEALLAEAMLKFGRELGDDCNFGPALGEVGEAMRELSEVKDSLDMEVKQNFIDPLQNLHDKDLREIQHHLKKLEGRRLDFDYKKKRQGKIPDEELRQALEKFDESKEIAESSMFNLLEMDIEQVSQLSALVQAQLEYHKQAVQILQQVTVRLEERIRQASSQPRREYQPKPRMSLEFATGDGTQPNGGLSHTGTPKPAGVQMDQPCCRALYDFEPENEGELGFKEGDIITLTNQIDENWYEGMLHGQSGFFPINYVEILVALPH

What was measured:
Experiment in all cases: pull-down; GST-Dyn1 PRR constructs on GSH-sepharose beads incubated with rat brain synaptosomal (P2) lysate; 20 mM Tris pH 7.4, 150 mM NaCl, 1% Triton X-100, 1 mM EDTA, 1 mM EGTA; 4 °C, 1 h; bound proteins by Western blot with antibodies to Endophilin A and Amphiphysin 1; only the target purified
[1] = target: T1, GST-Dyn1xA 806-864 R838A (rat) (UniProt P21575)
T1 sequence: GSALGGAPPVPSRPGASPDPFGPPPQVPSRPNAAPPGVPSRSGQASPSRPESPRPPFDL

[2] = target: T2, GST-Dyn1xA-PRR S851/857E (rat) (UniProt P21575)
T2 sequence: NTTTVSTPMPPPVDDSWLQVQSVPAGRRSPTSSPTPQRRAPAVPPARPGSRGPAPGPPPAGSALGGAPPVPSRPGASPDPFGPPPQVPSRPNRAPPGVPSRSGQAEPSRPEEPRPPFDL

[3] = target: T3, GST-Dyn1xA-PRR P816/819A (rat) (UniProt P21575)
T3 sequence: T2 sequence with P71A, P74A, E106S, E112S

[4] = target: T4, GST-Dyn1xA 794-864 (rat) (UniProt P21575)
T4 sequence: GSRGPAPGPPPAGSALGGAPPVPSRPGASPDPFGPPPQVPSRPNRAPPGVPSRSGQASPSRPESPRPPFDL

[5] = target: T5, GST-Dyn1xA-PRR R838A (rat) (UniProt P21575)
T5 sequence: T2 sequence with R93A, E106S, E112S

[6] = target: T6, GST-Dyn1xA 746-798 (rat) (UniProt P21575)
T6 sequence: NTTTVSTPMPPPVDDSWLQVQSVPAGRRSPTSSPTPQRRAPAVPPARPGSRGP

[7] = target: T7, GST-Dyn1xA 806-864 P816/819A (rat) (UniProt P21575)
T7 sequence: T1 sequence with P11A, P14A, A33R

[8] = target: T8, GST-Dyn1xA 806-864 P813/816A (rat) (UniProt P21575)
T8 sequence: T1 sequence with P8A, P11A, A33R

[9] = target: T9, GST-Dyn1xA-PRR S774/778E (rat) (UniProt P21575)
T9 sequence: T2 sequence with S29E, S33E, E106S, E112S

[10] = target: T10, GST-Dyn1xA-PRR P844A (rat) (UniProt P21575)
T10 sequence: T2 sequence with P99A, E106S, E112S

[11] = target: T11, GST-Dyn1xA-PRR P841/844A (rat) (UniProt P21575)
T11 sequence: T2 sequence with P96A, P99A, E106S, E112S

[12] = target: T12, GST-Dyn1xA-PRR P813/816A (rat) (UniProt P21575)
T12 sequence: T2 sequence with P68A, P71A, E106S, E112S

[13] = target: GST-Dyn1xA-PRR (full-length proline-rich region of Dynamin 1 splice variant xA, 746-864) (rat) (UniProt P21575)
[14] = target: T13, GST-Dyn1xA 806-864 P841/844A (rat) (UniProt P21575)
T13 sequence: T1 sequence with A33R, P36A, P39A

[15] = target: T14, GST-Dyn1xA-PRR R846A (rat) (UniProt P21575)
T14 sequence: T2 sequence with R101A, E106S, E112S

[16] = target: T15, GST-Dyn1xA 806-864 (rat) (UniProt P21575)
T15 sequence: T1 sequence with A33R

[17] = target: T16, GST-Dyn1xA 806-864 P833/836A (rat) (UniProt P21575)
T16 sequence: T1 sequence with P28A, P31A, A33R

- binding [1]: binds weakly
- binding [2]: binds
- binding [3]: binds
- binding [4]: binds
- binding [5]: binds
- binding [6]: binds
- binding [7]: binds
- binding [8]: binds
- binding [9]: binds
- binding [10]: binds
- binding [11]: binds
- binding [12]: binds
- binding [13]: binds
- binding [14]: binds
- binding [15]: binds
- binding [16]: binds
- binding [17]: no binding
Substance: Endophilin A1 (endogenous, rat brain synaptosomes) (from UniProt O35179 1-352)
